According to the supplement of paper PMC4604168 (melanoma cell lines):
Some of the results follow. Repeats are few or missing, and single values can be far off.

What follows are molecules tested on LOXIMVI (assay: cell count relative to DMSO control; melanoma cells; higher = more viable cells). Details: library dose: standard library concentration; 72 h.
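Also: cells treated in 1,536-well plates, then fixed and DAPI-stained, with nuclei counted from automated high-throughput microscope images.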

Structure (SMILES)	cell count
Nc1cccc2c1CN(C1CCC(=O)NC1=O)C2=O (configuration not stated) [lenalidomide] + CC(C)(C)c1cnc(CSc2cnc(NC(=O)C3CCNCC3)s2)o1 [SNS-032] (first compound 5 µM, partner dose 0.05 µM)	75.1%
O=C(CCCCCCC(=O)Nc1ccccc1)NO [vorinostat] + CC(C)(C)c1cnc(CSc2cnc(NC(=O)C3CCNCC3)s2)o1 [SNS-032] (first compound 0.4 µM, partner dose 0.05 µM)	63.6%
Clc1ccc(Nc2nnc(Cc3ccncc3)c3ccccc23)cc1 [vatalanib] + O=C(Nc1ccccc1)c1cc([N+](=O)[O-])ccc1Cl [GW9662] (first compound 10 µM, partner dose 10 µM)	45.9%
COCC[n+]1c2c(n(Cc3cnccn3)c1C)C(=O)c1ccccc1C2=O + COc1cc(N2CCC(N3CCN(C)CC3)CC2)ccc1Nc1ncc(Cl)c(Nc2ccccc2S(=O)(=O)C(C)C)n1 [NVP-TAE684] (first compound 0.002 µM, partner dose 0.4 µM)	86.5%
O=C(CCCCCCC(=O)Nc1ccccc1)NO [vorinostat] + COc1ccc(-c2ccc3c(N4CCOCC4)nc(N4C[C@@H](C)O[C@@H](C)C4)nc3n2)cc1CO [KU0063794] (first compound 0.4 µM, partner dose 0.1 µM)	52.4%
Cn1c(Nc2ccc(C(F)(F)F)cc2)nc2cc(Oc3ccnc(-c4ncc(C(F)(F)F)[nH]4)c3)ccc21 + CN(C)S(=O)(=O)c1ccc2c(c1)/C(=C/c1cc3c([nH]1)CCCC3)C(=O)N2 [SU6656] (first compound 0.4 µM, partner dose 2 µM)	77.7%
Clc1ccc(Nc2nnc(Cc3ccncc3)c3ccccc23)cc1 [vatalanib] + OCCn1cc(-c2cnc3nnn(Cc4ccc5ncccc5c4)c3n2)cn1 [PF04217903] (first compound 10 µM, partner dose 5 µM)	81.6%
Nc1cccc2c1CN(C1CCC(=O)NC1=O)C2=O (configuration not stated) [lenalidomide] + COc1ccc2c(c1)CCC1C2CCC2(C)C(NCCCCCCN3C(=O)C=CC3=O)CCC12 [U73122] (first compound 5 µM, partner dose 2 µM)	203%
Cn1c(Nc2ccc(C(F)(F)F)cc2)nc2cc(Oc3ccnc(-c4ncc(C(F)(F)F)[nH]4)c3)ccc21 + COc1cc(N2CCC(N3CCN(C)CC3)CC2)ccc1Nc1ncc(Cl)c(Nc2ccccc2S(=O)(=O)C(C)C)n1 [NVP-TAE684] (first compound 0.4 µM, partner dose 0.4 µM)	61.3%
C#Cc1cccc(Nc2ncnc3cc(OCCOC)c(OCCOC)cc23)c1 [erlotinib] + COc1cc2ncnc(Nc3ccc(Oc4ccccc4)cc3)c2cc1OC [SrcI1] (first compound 4 µM, partner dose 10 µM)	67.6%
C#Cc1cccc(Nc2ncnc3cc(OCCOC)c(OCCOC)cc23)c1 [erlotinib] + Cc1cc([N+](=O)[O-])ccc1NS(=O)(=O)c1cc(Cl)ccc1Cl [FH535] (first compound 4 µM, partner dose 5 µM)	69.8%
OCc1c[nH]c2ccccc12 [Indole-3-carbinol] + C#Cc1cccc(Nc2ncnc3cc(OCCOC)c(OCCOC)cc23)c1 [erlotinib] (first compound 4 µM, partner dose 4 µM)	103%
Clc1ccc(Nc2nnc(Cc3ccncc3)c3ccccc23)cc1 [vatalanib] + O=C(O)c1ccc(-c2c[nH]c3ncc(-c4ccccc4)cc23)cc1C1CCCC1 [GSK650394] (first compound 10 µM, partner dose 0.8 µM)	67.3%
Cn1c(Nc2ccc(C(F)(F)F)cc2)nc2cc(Oc3ccnc(-c4ncc(C(F)(F)F)[nH]4)c3)ccc21 + CO[C@@H]1[C@H](N(C)C(=O)c2ccccc2)C[C@H]2O[C@]1(C)n1c3ccccc3c3c4c(c5c6ccccc6n2c5c31)C(=O)NC4 [Midostaurin] (first compound 0.4 µM, partner dose 0.4 µM)	29.2%
Clc1ccc(Nc2nnc(Cc3ccncc3)c3ccccc23)cc1 [vatalanib] + COCC[n+]1c2c(n(Cc3cnccn3)c1C)C(=O)c1ccccc1C2=O [YM155] (first compound 10 µM, partner dose 0.002 µM)	61.4%
Cn1c(Nc2ccc(C(F)(F)F)cc2)nc2cc(Oc3ccnc(-c4ncc(C(F)(F)F)[nH]4)c3)ccc21 + O=C(O)C(=O)Nc1sc2c(c1C(=O)O)CCNC2 [TCS401] (first compound 0.4 µM, partner dose 8.33333 µM)	76.9%

Structure (SMILES)	cell count
O=C(CCCCCCC(=O)Nc1ccccc1)NO [vorinostat] + COc1cc(Nc2ncc(F)c(Nc3ccc4c(n3)NC(=O)C(C)(C)O4)n2)cc(OC)c1OC [Tamatinib] (first compound 0.4 µM, partner dose 2 µM)	24%
O=C(CCCCCCC(=O)Nc1ccccc1)NO [vorinostat] + N#Cc1c(O)c2c(-c3ccc(-c4ccccc4O)cc3)csc2[nH]c1=O [A769662] (first compound 0.4 µM, partner dose 10 µM)	97.7%
Nc1cccc2c1CN(C1CCC(=O)NC1=O)C2=O (configuration not stated) [lenalidomide] + Cn1cc(/C=C2\C(=O)Nc3cccnc32)c2ccccc21 [GW441756] (first compound 5 µM, partner dose 2 µM)	108%
Clc1ccc(Nc2nnc(Cc3ccncc3)c3ccccc23)cc1 [vatalanib] + C=CCn1c(=O)c2cnc(Nc3ccc(N4CCN(C)CC4)cc3)nc2n1-c1cccc(C(C)(C)O)n1 [MK1775] (first compound 10 µM, partner dose 0.1 µM)	75.8%
COCC[n+]1c2c(n(Cc3cnccn3)c1C)C(=O)c1ccccc1C2=O + O=c1cc(-c2cccc3c2Sc2ccccc2S3)oc(N2CCOCC2)c1 [KU55933] (first compound 0.002 µM, partner dose 5 µM)	69.9%
Cn1c(Nc2ccc(C(F)(F)F)cc2)nc2cc(Oc3ccnc(-c4ncc(C(F)(F)F)[nH]4)c3)ccc21 + O=C(CCCCCCC(=O)Nc1ccccc1)NO [vorinostat] (first compound 0.4 µM, partner dose 0.4 µM)	53%
COCC[n+]1c2c(n(Cc3cnccn3)c1C)C(=O)c1ccccc1C2=O + COc1cc2ncnc(Nc3ccc(Oc4ccccc4)cc3)c2cc1OC [SrcI1] (first compound 0.002 µM, partner dose 10 µM)	57.9%
COCC[n+]1c2c(n(Cc3cnccn3)c1C)C(=O)c1ccccc1C2=O + Cc1ccc(NC(=O)c2cccc(N(C)C)c2)cc1NC(=O)c1ccc(O)cc1 [ZM336372] (first compound 0.002 µM, partner dose 10 µM)	64.7%
COCC[n+]1c2c(n(Cc3cnccn3)c1C)C(=O)c1ccccc1C2=O + CN(NC(=O)CC(=O)NN(C)C(=S)c1ccccc1)C(=S)c1ccccc1 [STA4783] (first compound 0.002 µM, partner dose 0.03 µM)	43%
C#Cc1cccc(Nc2ncnc3cc(OCCOC)c(OCCOC)cc23)c1 [erlotinib] + Nc1cccc2c1CN(C1CCC(=O)NC1=O)C2=O [lenalidomide] (first compound 4 µM, partner dose 5 µM)	97.4%
Nc1cccc2c1CN(C1CCC(=O)NC1=O)C2=O (configuration not stated) [lenalidomide] + COC(=O)c1sccc1S(=O)(=O)Nc1ccc(Nc2ccccc2)cc1OC [GSK0660] (first compound 5 µM, partner dose 5 µM)	117%
Nc1cccc2c1CN(C1CCC(=O)NC1=O)C2=O (configuration not stated) [lenalidomide] + NC(=O)Nc1cc(-c2cccc(F)c2)sc1C(=O)N[C@H]1CCCNC1 [AZD7762] (first compound 5 µM, partner dose 0.1 µM)	65.8%
COCC[n+]1c2c(n(Cc3cnccn3)c1C)C(=O)c1ccccc1C2=O + COc1ccc2c(c1)CCC1C2CCC2(C)C(NCCCCCCN3C(=O)C=CC3=O)CCC12 [U73122] (first compound 0.002 µM, partner dose 2 µM)	93.8%
C#Cc1cccc(Nc2ncnc3cc(OCCOC)c(OCCOC)cc23)c1 [erlotinib] + COCC[n+]1c2c(n(Cc3cnccn3)c1C)C(=O)c1ccccc1C2=O [YM155] (first compound 4 µM, partner dose 0.002 µM)	42.9%
Clc1ccc(Nc2nnc(Cc3ccncc3)c3ccccc23)cc1 [vatalanib] + CCc1ccc(CCOc2ccc(CC3SC(=O)NC3=O)cc2)nc1 [pioglitazone] (first compound 10 µM, partner dose 10 µM)	90.3%
C#Cc1cccc(Nc2ncnc3cc(OCCOC)c(OCCOC)cc23)c1 [erlotinib] + CO[C@@H]1[C@H](N(C)C(=O)c2ccccc2)C[C@H]2O[C@]1(C)n1c3ccccc3c3c4c(c5c6ccccc6n2c5c31)C(=O)NC4 [Midostaurin] (first compound 4 µM, partner dose 0.4 µM)	47.8%
